Out of some 310,000 compounds screened, about 2,200 (0.71%) showed an effect of 50% or more. The effect is printed as a negative number. This is one part of the list.
Target: human ether-à-go-go-related gene (hERG) potassium channel (human, UniProt Q12809)
Assay: primary screen, population patch clamp on CHO cells stably expressing hERG

human ether-à-go-go-related gene (hERG) potassium channel, sequence (Q12809 whole entry, looked up): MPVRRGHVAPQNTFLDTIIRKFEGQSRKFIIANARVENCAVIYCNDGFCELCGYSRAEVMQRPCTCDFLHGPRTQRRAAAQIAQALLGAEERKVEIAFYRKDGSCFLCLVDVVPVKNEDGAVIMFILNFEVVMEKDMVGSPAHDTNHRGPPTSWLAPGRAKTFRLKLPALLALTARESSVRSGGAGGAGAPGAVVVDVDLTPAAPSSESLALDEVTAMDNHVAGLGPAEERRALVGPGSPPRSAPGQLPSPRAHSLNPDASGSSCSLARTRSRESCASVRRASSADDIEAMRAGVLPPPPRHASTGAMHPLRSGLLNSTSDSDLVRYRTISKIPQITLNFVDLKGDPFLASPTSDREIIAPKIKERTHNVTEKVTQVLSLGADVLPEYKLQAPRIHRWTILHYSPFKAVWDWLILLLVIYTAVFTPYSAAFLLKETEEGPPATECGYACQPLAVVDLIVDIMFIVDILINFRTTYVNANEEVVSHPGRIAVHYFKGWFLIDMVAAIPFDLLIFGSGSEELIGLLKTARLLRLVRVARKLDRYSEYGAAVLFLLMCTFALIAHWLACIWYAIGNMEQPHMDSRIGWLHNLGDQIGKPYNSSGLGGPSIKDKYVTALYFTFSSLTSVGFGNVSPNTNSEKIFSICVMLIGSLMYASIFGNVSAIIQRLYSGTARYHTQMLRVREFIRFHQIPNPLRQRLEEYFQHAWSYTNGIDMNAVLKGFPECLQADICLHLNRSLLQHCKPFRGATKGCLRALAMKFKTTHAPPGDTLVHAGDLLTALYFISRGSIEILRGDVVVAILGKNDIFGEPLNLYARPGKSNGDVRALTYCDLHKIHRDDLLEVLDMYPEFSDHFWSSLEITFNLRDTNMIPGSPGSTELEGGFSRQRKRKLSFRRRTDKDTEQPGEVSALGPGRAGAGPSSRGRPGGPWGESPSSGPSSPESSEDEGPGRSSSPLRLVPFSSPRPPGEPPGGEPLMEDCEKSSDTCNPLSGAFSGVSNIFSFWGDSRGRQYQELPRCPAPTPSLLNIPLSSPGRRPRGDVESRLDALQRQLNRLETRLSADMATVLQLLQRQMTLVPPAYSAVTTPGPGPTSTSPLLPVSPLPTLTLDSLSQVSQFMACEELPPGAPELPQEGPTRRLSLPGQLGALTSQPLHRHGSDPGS

First: CN(C)C(=O)NC1c2ccccc2-c2ccccc21
Second: CC1CN(C(=O)N2c3ccccc3Sc3ccccc32)CC(C)O1 (stereo not drawn)
The “hERG current change (%, negative = inhibition) at 1uM” value of the first is higher: 19.2% for the first, 11.5% for the second.

Compared with `Cc1nn(C)c(C)c1C(C)NC(=O)c1cc(COc2ccc(F)c(F)c2)on1` (stereo not drawn), `Cc1ccc(C)c(C(=O)N(Cc2nc(-c3ccc(Cl)cc3)no2)C(C)C)c1` is lower in “hERG current change (%, negative = inhibition) at 1uM” value: 8.84% for the first, 7.31% for the second.

Going from `COc1ccc(CN2CCN(c3ccccc3F)CC2)cc1O` to `COc1cc(CN2CCCC(N3CCN(c4ccc(F)cc4)CC3)C2)ccc1F` (stereo not drawn), the “hERG current change (%, negative = inhibition) at 1uM” value rises from -51.2% to -37.9%.

Going from `COc1ccc(N2CCN(c3ncnc4sc(C(=O)NCC5CCCO5)c(C)c34)CC2)cc1` (stereo not drawn) to `Cc1ccccc1N1C(=O)C(Oc2ccc(Cl)cc2)C1CNCC1CCCO1.Cl` (stereo not drawn), the “hERG current change (%, negative = inhibition) at 1uM” value falls from -11.6% to -12.5%.

Compared with `Cc1ccc(OCCCC(=O)NC(C)c2ccccc2)cc1` (stereo not drawn), `Cc1noc(C)c1COC(=O)COc1ccc(-c2ccccc2)cc1` is lower in “hERG current change (%, negative = inhibition) at 1uM” value: 8.76% for the first, 8.49% for the second.

Going from `CC(Oc1ccccc1)C(=O)N=C1SC2CS(=O)(=O)CC2N1Cc1ccccc1` (stereo not drawn) to `Cc1ccc(OCC(=O)N(Cc2ccccc2)C2CCS(=O)(=O)C2)c([N+](=O)[O-])n1` (stereo not drawn), the “hERG current change (%, negative = inhibition) at 1uM” value falls from 8.74% to -0.248%.

First: C=C[C@@H]1c2ccccc2N(S(=O)(=O)c2ccc(C)cc2)[C@H](c2ccccc2C(F)(F)F)C1(C#N)C#N
Second: Cc1ccc(S(=O)(=O)N(C)/N=C/c2ccc(C(=O)O)cc2)cc1
The “hERG current change (%, negative = inhibition) at 1uM” value of the first is higher: 14.9% for the first, 8.19% for the second.

Going from `CCn1c(SCC(=O)N2CCc3ccccc32)nnc1-c1ccco1` to `COc1ccc(Cl)cc1NC(=O)C(C)N1CCc2ccccc21` (stereo not drawn), the “hERG current change (%, negative = inhibition) at 1uM” value falls from 11% to 8.81%.

Going from `CCOc1ccc(CCNC(=O)COC(=O)c2ccc(C)s2)cc1OCC` to `O=C(COC(=O)CCN1C(=O)C2CC=CCC2C1=O)NCCc1ccc(F)cc1` (stereo not drawn), the “hERG current change (%, negative = inhibition) at 1uM” value falls from 17.2% to -2.01%.

First: CCN(CC)CCn1c2c(c(SCC(=O)Nc3ccc(C)c(F)c3)nc1=O)CCC2
Second: CC(C)c1nc(SCC(=O)NC2CCCC2)c2c(=O)n(C)c(=O)n(C)c2n1
The “hERG current change (%, negative = inhibition) at 1uM” value of the first is lower: -23% for the first, 13.9% for the second.

Going from `COC(=O)c1cc(S(=O)(=O)NCCc2sccc2C)c[nH]1` to `COC(=O)c1ccccc1S(=O)(=O)NCc1nc2nc(C)cc(C)n2n1`, the “hERG current change (%, negative = inhibition) at 1uM” value falls from 13.5% to 4.57%.

First: CC1CCCN(c2ncnc3c2cnn3-c2ccccc2)C1 (stereo not drawn)
Second: CC(C)(C)n1nnnc1C(c1ccccc1)N1CCc2ccccc2C1 (stereo not drawn)
The “hERG current change (%, negative = inhibition) at 1uM” value of the first is lower: 11.7% for the first, 15.7% for the second.

First: COc1ccc(OC)c(-c2csc(NC(=O)Cc3cc(OC)c(OC)c(OC)c3)n2)c1
Second: COc1ccc(CN2C3CCC2CC(NC(=O)c2cc(OC)c(OC)c(OC)c2)C3)cc1 (stereo not drawn)
The “hERG current change (%, negative = inhibition) at 1uM” value of the first is higher: 8.86% for the first, 7% for the second.

First: Cc1ccc(-c2nc(CS(=O)CC(=O)NC3CC3)c(C)o2)cc1 (stereo not drawn)
Second: Cc1cc(C)cc(OCC(=O)NNC(=O)C2CCCO2)c1 (stereo not drawn)
The “hERG current change (%, negative = inhibition) at 1uM” value of the first is higher: 17.1% for the first, 9.09% for the second.

Compared with `COc1ccc(C(=O)c2oc3ccc(OC)cc3c2NC(C)=O)cc1`, `COc1ccc(C(=O)Nn2c(C)nc3ccccc3c2=O)cc1` is lower in “hERG current change (%, negative = inhibition) at 1uM” value: 18.5% for the first, 10.4% for the second.

First: COc1cccc(NC(=O)Nc2cccc(C)n2)c1
Second: COc1cccc(NC(=S)NC(=O)Cc2ccc(Cl)cc2)c1
The “hERG current change (%, negative = inhibition) at 1uM” value of the first is higher: 21.6% for the first, 14.1% for the second.

Compared with `N/C(=N\OC(=O)c1ccc(Cl)cc1Cl)c1ccccn1`, `Cc1ccc2c(COC(=O)c3ccccc3Cl)cc(=O)oc2c1` is higher in “hERG current change (%, negative = inhibition) at 1uM” value: -4.39% for the first, 19.7% for the second.

Compared with `O=C(Nc1ccc(O)cc1C(=O)O)c1cccc(Br)c1`, `CCN1C(=O)c2ccc(C(=O)Nc3cccc(C(=O)O)c3)cc2C1=O` is higher in “hERG current change (%, negative = inhibition) at 1uM” value: 12% for the first, 13.2% for the second.

First: O=C(CCc1c[nH]c2ccccc12)NCc1cccc(Cl)c1
Second: CC1=NN=C(c2ccccc2)C(c2c[nH]c3ccccc23)N1O (stereo not drawn)
The “hERG current change (%, negative = inhibition) at 1uM” value of the first is lower: 6.41% for the first, 22% for the second.

Going from `CCc1ccc(C(=O)Nc2nc(C)cs2)s1` to `COc1ccc(-c2csc(NC(=O)CSc3nnc(Nc4ccccc4C)s3)n2)cc1`, the “hERG current change (%, negative = inhibition) at 1uM” value falls from 5.16% to 2.61%.

Compared with `Brc1ccccc1CN1CCC(N2CCCCC2)CC1`, `CCOc1ccc(S(=O)(=O)N2CCC(C(=O)NCc3ccccc3CN3CCCC3)CC2)cc1` is lower in “hERG current change (%, negative = inhibition) at 1uM” value: -3.6% for the first, -26.3% for the second.

Compared with `COc1ccc2c(C=O)c[nH]c2c1`, `COC(=O)C1=CN(C(C)C)C=C(C(=O)OC)C1c1cccc(OC)c1` is higher in “hERG current change (%, negative = inhibition) at 1uM” value: 6.81% for the first, 7.57% for the second.

First: O=C(CN1C(=O)NC2(CCOc3ccccc32)C1=O)NCC(F)(F)F (stereo not drawn)
Second: COC(=O)/C(=C\Nc1ccccc1N)c1ncc(C(F)(F)F)cc1Cl
The “hERG current change (%, negative = inhibition) at 1uM” value of the first is higher: 14.7% for the first, 6.66% for the second.

First: O=C(N/N=C/c1ccc(N2CCOCC2)cc1)c1ccncc1
Second: O=C(CNS(=O)(=O)c1ccc([N+](=O)[O-])cc1)N/N=C\c1ccc(O)cc1
The “hERG current change (%, negative = inhibition) at 1uM” value of the first is lower: 10.4% for the first, 14.2% for the second.

Compared with `C=C(C)[C@@]12OC3(c4ccccc4)O[C@@H]1C1[C@@H]4O[C@]4(CO)[C@@H](O)[C@]4(O)C(=O)C(C)=C[C@H]4[C@@]1(O3)[C@H](C)[C@H]2OC(=O)/C=C/C=C/c1ccccc1` (stereo partly drawn), `O=C1S/C(=C\c2ccccc2)C(=O)N1CC(O)Cn1c2ccccc2c2ccccc21` (stereo not drawn) is higher in “hERG current change (%, negative = inhibition) at 1uM” value: 9.22% for the first, 14.6% for the second.

Going from `CC1(C)C[C@@H](O)CC2(C1)C[C@]1(C)CC(O)[C@H]2C(C)(C)C1` (stereo partly drawn) to `CC1(C)CC(CCC(=O)Nc2ccc(S(N)(=O)=O)cc2)C(=O)O1` (stereo not drawn), the “hERG current change (%, negative = inhibition) at 1uM” value rises from 10.7% to 20.4%.

Going from `Cc1sc2ncn(CC(=O)N3CCCCC3)c(=O)c2c1S(=O)(=O)N1CCC(C)CC1` to `COc1cccc2c(=O)n(CC(=O)N3CCCCCC3)ccc12`, the “hERG current change (%, negative = inhibition) at 1uM” value falls from 10.8% to 9.83%.

First: CNC(=O)N(C1=NCC(C)S1)c1ccc(F)cc1F (stereo not drawn)
Second: Cc1ccsc1C(=O)c1sccc1C
The “hERG current change (%, negative = inhibition) at 1uM” value of the first is lower: -4.87% for the first, 10.6% for the second.

Compared with `Cc1ccc(/C=C2\SC(=S)N(CCCC(=O)NNC(=O)c3ccccc3O)C2=O)cc1`, `Cc1cccnc1NC(=O)CCn1c(=O)oc2ccccc21` is higher in “hERG current change (%, negative = inhibition) at 1uM” value: 4.66% for the first, 15.4% for the second.

Compared with `O=C(C1CCCCC1)N1CC(=O)N2CCc3ccccc3C2C1` (stereo not drawn), `O=C(NCCc1ccccc1)C(=O)NC1CCCCC1` is lower in “hERG current change (%, negative = inhibition) at 1uM” value: 16.3% for the first, 10% for the second.

Going from `COc1cccc(C(=O)N2CCN(Cc3cccc(F)c3)CC2)c1.O=C(O)C(=O)O` to `COc1cc(C(=O)N(C)C2CCCN(Cc3ccccc3F)C2)cc(OC)c1OC` (stereo not drawn), the “hERG current change (%, negative = inhibition) at 1uM” value falls from 12.4% to 10.2%.

First: CC(=O)Nc1ccc(C(=O)CSc2nnc(Cn3nnc4ccccc43)n2C)cc1
Second: O=C(Nc1ccc(-c2nc3cccnc3s2)cc1)c1ccc(Cl)nc1
The “hERG current change (%, negative = inhibition) at 1uM” value of the first is higher: 9.17% for the first, 7.19% for the second.

First: Cc1c(Cl)cccc1NC(=S)Nc1ccc2[nH]c(=O)[nH]c2c1
Second: Cc1cccc(NC(=O)c2cc(-c3cc(C)cc(C)c3O)n[nH]2)c1
The “hERG current change (%, negative = inhibition) at 1uM” value of the first is lower: 5.15% for the first, 21.4% for the second.

Going from `CCN(CC(=O)NCc1cccs1)C(=O)c1cc(S(=O)(=O)NCc2ccccc2)ccc1C` to `Cc1cc(N/N=C/c2ccc(N(C)C)cc2)nc(NCc2ccccc2)n1`, the “hERG current change (%, negative = inhibition) at 1uM” value rises from -7.97% to 8.2%.

Compared with `O=C(CCC1CCCCC1)Nc1nccs1`, `CCn1c(SCC(=O)N2CCCCCC2)nc2c([nH]c3ccccc32)c1=O` is lower in “hERG current change (%, negative = inhibition) at 1uM” value: -2.61% for the first, -3.2% for the second.

Compared with `Cc1cccc(NC(=O)C(C)N2CC=C(c3ccccc3)CC2)c1` (stereo not drawn), `Cc1cc(-c2ccccc2)n(-c2cc(N/N=C/c3ccccc3O)ncn2)n1` is lower in “hERG current change (%, negative = inhibition) at 1uM” value: 10.8% for the first, -0.826% for the second.

Compared with `COc1cc(C#CC#CCN2CCCCC2)ccc1O.Cl`, `COc1ccc(S(=O)(=O)N2CCCCC2)cc1C(C)C` is higher in “hERG current change (%, negative = inhibition) at 1uM” value: -0.226% for the first, 7.64% for the second.

Going from `CSc1ccc(C2C3(C#N)C(N)=NC4(OCCO4)C23C#N)cc1` (stereo not drawn) to `CC(=O)Oc1ccc(N2C(=O)CCC2=O)cc1`, the “hERG current change (%, negative = inhibition) at 1uM” value rises from 3.95% to 16.1%.

Going from `CCC(C)Sc1ccc([C@H]2N[C@@](Cc3ccccc3)(C(=O)OC)[C@H]3C(=O)N(C)C(=O)[C@@H]23)cc1.O=C(O)C(F)(F)F` (stereo partly drawn) to `O=C(/C(C=Nc1ccc(F)cc1)=C(/O)c1ccco1)C(F)(F)F`, the “hERG current change (%, negative = inhibition) at 1uM” value rises from 0.708% to 3.35%.

Going from `COCOc1ccc(-c2oc3c(C/C=C(\C)CCC=C(C)C)ccc(O)c3c(=O)c2OCOC)c(OCOC)c1` to `CCc1cc2c(-c3ccccc3)cc(=O)oc2cc1OCC(C)=O`, the “hERG current change (%, negative = inhibition) at 1uM” value rises from -0.0528% to 8.68%.

Going from `COc1ccc(S(=O)(=O)CC2(O)CCN(C(=O)CC(C)C)CC2)cc1` to `CCOC(=O)N1CCN(C(=O)C2CCC(CNS(=O)(=O)c3ccc(Cl)cc3)CC2)CC1` (stereo not drawn), the “hERG current change (%, negative = inhibition) at 1uM” value falls from 4.28% to 3.08%.

First: Cc1cccc(C)c1NC(=O)CNC(=O)C1COc2ccccc2O1 (stereo not drawn)
Second: COc1ccccc1OCC(=O)NCCCn1ccnc1
The “hERG current change (%, negative = inhibition) at 1uM” value of the first is higher: 19.4% for the first, 10.4% for the second.

Compared with `O=S(=O)(O/N=C1\CCCc2ccccc21)c1ccc(Cl)cc1`, `Cc1cc(N2CCN(C)CC2)nc2ccc(NC(=S)N3CCN(c4ccccn4)CC3)cc12` is lower in “hERG current change (%, negative = inhibition) at 1uM” value: 11.7% for the first, 9.76% for the second.

For `CCN(CC)C(=O)CSc1nc2ncc(Cl)cc2[nH]1`, the “hERG current change (%, negative = inhibition) at 1uM” value was 9.4%.

— PMC4336329 (PLoS ONE, 2015)
